According to the antibiotic and cytotoxicity screens of Wong et al. (2023):
The other results are listed elsewhere or left out.

Legend:
HSkMC = human skeletal muscle cells; assay: cytotoxicity call (relative viability < 0.9); details: 10 µM
HepG2 = assay: cytotoxicity call (relative viability < 0.9); details: 10 µM
S. aureus RN4220 = assay: growth inhibition call (relative growth <= 0.2); details: 50 µM

With `COc1ccc(CN(C)C[C@@H]2OCCCC[C@H](C)Oc3ccc(NS(=O)(=O)c4ccc(Cl)cc4)cc3C(=O)N([C@H](C)CO)C[C@H]2C)cc1` the cytotoxicity call (HSkMC) was “inactive”, the cytotoxicity call (HepG2) was “inactive” and the growth inhibition call (S. aureus RN4220) was “inactive”.
In the case of `Cc1ccc(S[C@]2(C(=O)NCc3ccccc3)CC(=O)N(Cc3cc(C(F)(F)F)cc(C(F)(F)F)c3)[C@@H]2c2ccc(CO)cc2)cc1`, the cytotoxicity call (HSkMC) is reported as “inactive”, the cytotoxicity call (HepG2) is reported as “inactive” and the growth inhibition call (S. aureus RN4220) is reported as “inactive”.
With `CO[C@H]1CN(C)C(=O)c2cc(NS(C)(=O)=O)ccc2OC[C@H](C)N(C(=O)CN(C)C)C[C@H]1C` the cytotoxicity call (HSkMC) was “inactive”, the cytotoxicity call (HepG2) was “inactive” and the growth inhibition call (S. aureus RN4220) was “inactive”.
For `COc1ccc(NC(=O)Nc2ccc3c(c2)C(=O)N([C@@H](C)CO)C[C@@H](C)[C@H](CN(C)C(=O)C2CCCCC2)OCCCC[C@@H](C)O3)cc1`, the cytotoxicity call (HSkMC) was “inactive”, the cytotoxicity call (HepG2) was “inactive” and the growth inhibition call (S. aureus RN4220) was “inactive”.
In the case of `C[C@H]1CN([C@@H](C)CO)S(=O)(=O)c2ccc(-c3cccnc3)cc2O[C@@H]1CN(C)C(=O)c1cccc(F)c1`, the cytotoxicity call (HSkMC) is reported as “inactive”, the cytotoxicity call (HepG2) is reported as “inactive” and the growth inhibition call (S. aureus RN4220) is reported as “inactive”.
With `COc1ccc(NC(=O)N(C)C[C@@H]2OCCCC[C@@H](C)Oc3ccc(NC(=O)Nc4cccc5ccccc45)cc3C(=O)N([C@@H](C)CO)C[C@@H]2C)cc1` the cytotoxicity call (HSkMC) was “inactive”, the cytotoxicity call (HepG2) was “inactive” and the growth inhibition call (S. aureus RN4220) was “inactive”.
With `C[C@H](CO)N1C[C@H](C)[C@H](CN(C)C(=O)Nc2ccc(C(F)(F)F)cc2)Oc2c(NS(=O)(=O)c3ccc(F)cc3)cccc2C1=O` the cytotoxicity call (HSkMC) was “inactive”, the cytotoxicity call (HepG2) was “inactive” and the growth inhibition call (S. aureus RN4220) was “inactive”.
With `COc1ccc(S(=O)(=O)Nc2ccc3c(c2)C(=O)N([C@@H](C)CO)C[C@H](C)[C@@H](CN(C)C(=O)C2CCCCC2)OCCCC[C@H](C)O3)cc1` the cytotoxicity call (HSkMC) was “inactive”, the cytotoxicity call (HepG2) was “inactive” and the growth inhibition call (S. aureus RN4220) was “inactive”.
In the case of `C[C@H](CO)N1C[C@H](C)[C@H](CN(C)CC2CCCCC2)Oc2ccc(NC(=O)Cc3cn(C)c4ccccc34)cc2CC1=O`, the cytotoxicity call (HSkMC) is reported as “inactive”, the cytotoxicity call (HepG2) is reported as “inactive” and the growth inhibition call (S. aureus RN4220) is reported as “inactive”.
For `C[C@H](CO)N1C[C@H](C)[C@@H](CN(C)S(=O)(=O)c2cccc(F)c2)Oc2ncc(Br)cc2C1=O`, the cytotoxicity call (HSkMC) was “inactive”, the cytotoxicity call (HepG2) was “inactive” and the growth inhibition call (S. aureus RN4220) was “inactive”.
With `Oc1ccc(Cl)c2cccnc12` the cytotoxicity call (HSkMC) was “active”, the cytotoxicity call (HepG2) was “active” and the growth inhibition call (S. aureus RN4220) was “inactive”.
With `CN(C)C(=O)C[C@@H]1C=C[C@@H](NC(=O)C2CC2)[C@H](CO)O1` the cytotoxicity call (HSkMC) was “inactive”, the cytotoxicity call (HepG2) was “inactive” and the growth inhibition call (S. aureus RN4220) was “inactive”.
In the case of `O=C(C[C@H]1CC[C@H]2[C@@H](COC[C@@H](O)CN2S(=O)(=O)c2cccc(Cl)c2)O1)NCc1ccncn1`, the cytotoxicity call (HSkMC) is reported as “inactive”, the cytotoxicity call (HepG2) is reported as “inactive” and the growth inhibition call (S. aureus RN4220) is reported as “inactive”.
`COc1cccc(NC(=O)N(C)C[C@@H]2Oc3cc(C#Cc4ccncc4)ccc3S(=O)(=O)N([C@H](C)CO)C[C@H]2C)c1` was tested, and the cytotoxicity call (HSkMC) was “inactive”, the cytotoxicity call (HepG2) was “active” and the growth inhibition call (S. aureus RN4220) was “inactive”.
For `C[C@@H]1CN([C@@H](C)CO)C(=O)c2cccc(NC(=O)Nc3ccc(C(F)(F)F)cc3)c2O[C@@H]1CN(C)Cc1ccc(Oc2ccccc2)cc1`, the cytotoxicity call (HSkMC) was “active”, the cytotoxicity call (HepG2) was “active” and the growth inhibition call (S. aureus RN4220) was “inactive”.
With `C[C@@H]1CCCCO[C@@H](CN(C)C(=O)c2ccccc2)[C@H](C)CN([C@H](C)CO)C(=O)c2cc(NS(=O)(=O)c3cccs3)ccc2O1` the cytotoxicity call (HSkMC) was “inactive”, the cytotoxicity call (HepG2) was “inactive” and the growth inhibition call (S. aureus RN4220) was “inactive”.
In the case of `COc1ccc(NC(=O)Nc2ccc3c(c2)C(=O)N([C@H](C)CO)C[C@H](C)[C@@H](CN(C)S(=O)(=O)c2ccc(C)cc2)OCCCC[C@@H](C)O3)cc1`, the cytotoxicity call (HSkMC) is reported as “inactive”, the cytotoxicity call (HepG2) is reported as “inactive” and the growth inhibition call (S. aureus RN4220) is reported as “inactive”.
`Nc1ccc2cc(S(=O)(=O)O)ccc2c1/N=N/c1ccc(/C=C/c2ccc(/N=N/c3c(N)ccc4cc(S(=O)(=O)O)ccc34)cc2S(=O)(=O)O)c(S(=O)(=O)O)c1` was tested, and the cytotoxicity call (HSkMC) was “inactive”, the cytotoxicity call (HepG2) was “inactive” and the growth inhibition call (S. aureus RN4220) was “inactive”.
In the case of `COc1ccc(NC(=O)Nc2ccc3c(c2)C(=O)N([C@H](C)CO)C[C@@H](C)[C@H](CN(C)C(=O)Nc2ccc4c(c2)OCO4)OCCCC[C@@H](C)O3)cc1`, the cytotoxicity call (HSkMC) is reported as “inactive”, the cytotoxicity call (HepG2) is reported as “inactive” and the growth inhibition call (S. aureus RN4220) is reported as “inactive”.
In the case of `C[C@@H]1CN([C@H](C)CO)C(=O)c2cccc(NC(=O)Nc3cccc4ccccc34)c2O[C@H]1CN(C)C(=O)Nc1cccc2ccccc12`, the cytotoxicity call (HSkMC) is reported as “active”, the cytotoxicity call (HepG2) is reported as “inactive” and the growth inhibition call (S. aureus RN4220) is reported as “inactive”.
For `O=c1ccoc2cc(O)c([C@H]3O[C@H](CO)[C@@H](O)[C@H](O)[C@@H]3O)c(O)c12`, the cytotoxicity call (HSkMC) was “inactive”, the cytotoxicity call (HepG2) was “inactive” and the growth inhibition call (S. aureus RN4220) was “inactive”.
`CS(=O)(=O)Nc1ccc2c(c1)[C@@H]1C[C@H](CC(=O)NCc3ccc(-c4ccccc4)cc3)O[C@H](CO)[C@@H]1O2` was tested, and the cytotoxicity call (HSkMC) was “inactive”, the cytotoxicity call (HepG2) was “inactive” and the growth inhibition call (S. aureus RN4220) was “inactive”.
For `C[C@@H]1CN([C@H](C)CO)C(=O)c2cc(NC(=O)Cc3cn(C)c4ccccc34)ccc2O[C@@H]1CN(C)Cc1ccc(C(F)(F)F)cc1`, the cytotoxicity call (HSkMC) was “active”, the cytotoxicity call (HepG2) was “active” and the growth inhibition call (S. aureus RN4220) was “inactive”.
